# In PMC10668032:
# The other results are listed elsewhere or left out. At the low end of the ranking, values are background and their order means little.
# Target: SIX1 homeodomain (reference allele) (UniProt Q15475)
# Experiment: universal protein binding microarray
# Details: Universal all-10-mer PBM (8x60K, AMADID 030236), 300 nM GST-tagged protein, Alexa Fluor 488 anti-GST; buffer, salt, pH and temperature not stated; high values mean tight binding; most listed sequences are background and not binding sites; double strand, one strand shown
row,Sequence,binding signal
1,ACGGCATC,-0.0794 E-score
2,AGTCGCCA,-0.202 E-score
3,CGTTGTTC,-0.234 E-score
4,AAGTGCAC,-0.183 E-score
5,AAAAATCT,-0.186 E-score
6,AAGACGCG,-0.0652 E-score
7,CGTAGGAC,-0.0408 E-score
8,AGACAAAC,-0.0778 E-score
9,CGACTCCA,0.0717 E-score
10,ACCGGAAT,0.0349 E-score
11,AGTATGTA,0.0608 E-score
12,AATATGGT,0.177 E-score
13,TATTCAAA,0.121 E-score
14,AGAGTCGA,-0.107 E-score
15,TAAACAGA,-0.213 E-score
16,GCTATCTA,0.169 E-score
17,CCCGGAGA,0.169 E-score
18,AGTCGTAC,-0.214 E-score
19,TACGGTCA,-0.00978 E-score
20,CCTCGGGC,-0.112 E-score
21,ACCGGTGC,-0.0854 E-score
22,ACCATCGG,0.0183 E-score
23,GATCCCTA,0.383 E-score
24,AGAGGGGG,0.0205 E-score
25,ATATGCAT,0.269 E-score

row,Sequence,binding signal
1,ATGAGAGC,-0.0611 E-score
2,ACTACGAT,0.167 E-score
3,GAAGAATA,0.00835 E-score
4,GGACAGCC,0.0364 E-score
5,ACAAGACG,0.0907 E-score
6,ACGCCGTA,-0.0195 E-score
7,ACTGTGAC,-0.167 E-score
8,GGTCGCTA,-0.176 E-score
9,GGTTACAA,-0.0718 E-score
10,ACAACACC,0.23 E-score
11,AGCTTAAA,-0.211 E-score
12,GACGCAGA,-0.0313 E-score
13,CTATGTTA,-0.153 E-score
14,CCCTGTCG,-0.0644 E-score
15,GACCGCAA,-0.0619 E-score
16,CACTGTTA,-0.0329 E-score
17,ACAAGAGC,-0.146 E-score
18,CCATGCCA,-0.0298 E-score
19,CATACCAA,0.0132 E-score
20,AGTCATCC,-0.0168 E-score
21,CAGTGTGG,-0.124 E-score
22,GACTAGAC,-0.0753 E-score
23,CAGTGGCC,-0.24 E-score
24,GATGCTTA,-0.109 E-score
25,TAACATAA,0.0412 E-score

row,Sequence,binding signal
1,CCAGCAAA,0.0567 E-score
2,CCTTATCA,0.12 E-score
3,ACTATTGG,-0.253 E-score
4,GCGTACGA,-0.2 E-score
5,CGGGCGCC,-0.243 E-score
6,ATAATCTA,0.148 E-score
7,CCTAGCAG,-0.0966 E-score
8,CCACACTA,-0.0224 E-score
9,CACCAATA,0.101 E-score
10,AAAGTGTC,0.134 E-score
11,GCAGGAAC,-0.193 E-score
12,ATTTCACC,-0.0602 E-score
13,ACGTTACT,-0.158 E-score
14,CTATACTA,0.168 E-score
15,GTACAACA,-0.0812 E-score
16,CAGCATTA,-0.109 E-score
17,CCTGTTCG,-0.184 E-score
18,CGCGGCTC,-0.0224 E-score
19,GGCAAGCC,-0.356 E-score
20,AAGAGATG,0.114 E-score
21,TATGAACA,0.0466 E-score
22,AGACAGTA,-0.00248 E-score
23,TCGATCAA,-0.236 E-score
24,TCAACGGA,-0.0228 E-score
25,AATTAGTC,-0.0591 E-score

row,Sequence,binding signal
1,ATCCTAAT,0.159 E-score
2,CTGACCTC,-0.208 E-score
3,CAACTTAA,-0.217 E-score
4,CTCTTCGA,0.062 E-score
5,AGGTAGGA,-0.037 E-score
6,GAACGACC,-0.161 E-score
7,CCCCTGCG,-0.0865 E-score
8,ATGTTACA,-0.0749 E-score
9,ATAGGATC,0.367 E-score
10,GCCCATAC,0.0867 E-score
11,AGCGTCAC,-0.236 E-score
12,AGAACTAG,-0.155 E-score
13,CCCCACTC,0.0317 E-score
14,GCAACACA,-0.242 E-score
15,CGATCTTC,0.288 E-score
16,AAGTCTAT,-0.233 E-score
17,GACGAACC,0.0379 E-score
18,GCCCCGGC,-0.0441 E-score
19,GATAACCC,0.22 E-score
20,ATGTAATG,0.018 E-score
21,GACCGGTA,-0.0336 E-score
22,AGGTTGGA,-0.0662 E-score
23,ACCGTCGG,-0.0916 E-score
24,AGACACAT,0.102 E-score
25,GTATGGCA,-0.105 E-score

row,Sequence,binding signal
1,GACTTTGC,-0.248 E-score
2,CTGCACAG,-0.0147 E-score
3,GACACATA,0.129 E-score
4,AAGCGGTG,-0.0255 E-score
5,CCATGCCG,-0.0631 E-score
6,CCCAGAGC,-0.195 E-score
7,AAGGAAAA,-0.283 E-score
8,CCCACTAA,0.0575 E-score
9,GCTATGCA,-0.137 E-score
10,GATGTCGC,-0.229 E-score
11,GCCAAGGC,-0.136 E-score
12,ATTGTGAC,0.142 E-score
13,CATAAACG,0.0571 E-score
14,ACCTCTAC,0.0436 E-score
15,CCTATCAA,0.288 E-score
16,ACAAATAA,-0.0818 E-score
17,CGTGGCAC,-0.237 E-score
18,CTACTCCA,0.131 E-score
19,GGGTCAAC,0.035 E-score
20,CGACGAGC,-0.025 E-score
21,AAGAGCTT,-0.15 E-score
22,ATGTCTAC,-0.0119 E-score
23,CCCGCCAG,0.0813 E-score
24,CATATCTC,0.342 E-score
25,AGCACCCA,-0.0303 E-score

row,Sequence,binding signal
1,AGCGCGCG,-0.288 E-score
2,CTCTGGCC,-0.041 E-score
3,GACTGATA,0.4 E-score
4,TCGCGAAA,-0.0284 E-score
5,GGACCATA,-0.043 E-score
6,AAATACTG,0.0394 E-score
7,ATAGGCAC,0.0509 E-score
8,CTCTGTTC,-0.141 E-score
9,ACGAAACT,0.0396 E-score
10,AGGCTATG,-0.0535 E-score
11,ACCACTCT,-0.149 E-score
12,GCATCCCA,-0.0537 E-score
13,GGCGCTAA,-0.251 E-score
14,GCCGCCCC,0.0111 E-score
15,CAAAAGGC,-0.251 E-score
16,AGCCCAGG,-0.207 E-score
17,AGAGCCAC,-0.0865 E-score
18,CGAGGTTA,-0.017 E-score
19,AGGGTCTC,-0.135 E-score
20,ATGTCCCG,-0.151 E-score
21,ATGTATTC,-0.0782 E-score
22,GTATTGTA,0.272 E-score
23,AAGGACCC,-0.0989 E-score
24,AAAGGGCT,-0.314 E-score
25,ATGATTTA,-0.0781 E-score

row,Sequence,binding signal
1,ACCGAAAA,-0.168 E-score
2,ACCCCTCT,0.236 E-score
3,CACGCATC,0.107 E-score
4,AGCTACCT,-0.00585 E-score
5,CTACGAAG,-0.121 E-score
6,AAATTATC,0.044 E-score
7,CTGTTGTC,-0.221 E-score
8,CTTGGTCC,-0.253 E-score
9,ACCCGCTC,0.077 E-score
10,GGCGAACA,-0.0372 E-score
11,ACATCACT,-0.0435 E-score
12,CTTTGCAC,-0.131 E-score
13,ACAGAGAA,-0.0446 E-score
14,ATTTAGGG,-0.0266 E-score
15,CAAGCATC,-0.0145 E-score
16,CTGTGTCC,-0.242 E-score
17,TAATCGCA,0.0413 E-score
18,ACATACGA,-0.0616 E-score
19,ATGTAACA,0.00835 E-score
20,TCCCTCGA,0.0166 E-score
21,AGGCATAT,0.308 E-score
22,CTCAATCC,0.0141 E-score
